Results: patent publication US6528630B1 (priority 1997, dated 2003)

Target: human neuronal calcium channel α1D, α2 and β1 subunits (Homo sapiens, UniProt Q01668)
Type: cell-based
Set-up: expressed in transfected cells; host or cells: Xenopus laevis oocytes injected with in vitro transcripts

SMILES	effect on current activation	effect on magnitude of inward barium currents	effect on tail currents	block of inward barium current
COC(=O)C1=C(C)NC(C)=C([N+](=O)[O-])C1c1ccccc1C(F)(F)F (stereo not shown) [Bay K 8644]	induced a hyperpolarizing shift in current activation	increased the magnitude of the currents	prolonged the tail currents	
[Cd] [cadmium]				blocked completely
